# Test results reported in PubChem BioAssay (NCI).
# Where a structure was tested more than once in an assay, its records may differ in their call.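 Percent growth is the endpoint: 0 to 100 indicates growth inhibition (40 means 60% inhibition), 0 means no net growth, and negative values indicate cell death.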 For part of its entries the source gives two or more results. The other results are left out here. The calls were made as follows: active = growth percent below 10; inactive = the rest. An entry can have further records. These are repeated runs of one drug, at the concentration stated with the values; one value stands for one run. Marks such as (2×) give the number of equal values in this list.
# System: NCI-H226 lung
# Assay: NCI-60 one-dose screen, 48 h (100 = growth as untreated, 0 = no growth, -100 = all killed)
structure (smiles),measurement,setting,value
COc1cccc2c1C(=O)c1c(O)c3c(c(O)c1C2=O)C[C@@](O)(C(=O)CO)C[C@@H]3OC1CC(N)C(O)C(C)O1 (stereo not given in full),growth,"0.25 µM, runs of 2009","active: -21.6, -19.4, 0.224, -15.2, -19.3, 2.75, 9.97, 0.689, 1.33, 2.63, -9.31, -0.801, -1.51, -10.3, -9.46, 2.49, -22.7, -0.36, -7.61, -17.5, -15.1, -24.3, -34.9, -7.52, -28.7, -47.9, -6.51, -13.2, -31.9, -42.4, -8.8, -9.38% and inactive: 41.6, 46.2, 21, 14.5, 12.8 (2×), 17.1, 20.8, 17.9, 10.9, 26.9, 27.8 (2×), 27.2, 19.8, 21.1, 32.1, 28.6, 21.9, 40.3, 61.6, 45.3, 45.4, 57.8, 48, 29, 22, 33.5, 14.4, 25.5, 18.4, 17.7, 43.7, 29.7, 44.9, 12.7, 26.8, 23.7%"
same,growth,"0.25 µM, runs of 2010","active: -7.35, -5.65, -4.53, -8.1, 5.71, 4.7, -23, 6.15, 8.17, -25.2, -22.9, 2.5, 9.46, 2.17, 3.53, 2.4, -7.93, 0.691, -4.14, -11.9, -52.8, -32.4, -9.8, 0.571, -8.4, 8.06, -1.92, 2.45, 5.26, 0.456, -4.5, -18.6, -18.4, -16, -10.6, -6.05% and inactive: 17.3, 13.5, 12.7, 24.4, 31.6, 37.9, 11.9, 18.5, 12.9 (2×), 34.6, 29.3, 33.6, 18.6, 16.4, 24, 21.3%"
same,growth,"0.25 µM, runs of 2011","active: -2.94, 4.53, 8.12, -2.32, -22.5, -16.6 (2×), -28, -13, -36.3, 9.92, -14.1, -36.7, -12.7, -7.04, 6.24, -6.62, -8.85, -11, -18, -12.2, 2.42, -8.92, -38.1, 1.43, 4, -3.92, -9.79, -12.6, -15.2, -32.5 (2×), 2.92, -7.79, -15.8, 6.66, 3.97, -4.06, -31.9, -5.97, 5.91, -11.7% and inactive: 18.4, 24.4, 29, 21.1, 17.8, 28.8 (2×), 18, 48, 46.9, 23.8, 25.8, 43, 14.8, 26%"
same,growth,"0.25 µM, runs of 2012","active: -5.08, -23.1 (2×), -37.9, -26.9, -5.74, -47.8, -43.9, -28.3, -68.2, -61.9, -67.5, -64, -53.1, -46.3, -43.7, -47, 4.98% and inactive: 17.9, 22.3, 15.7, 29, 47.6 (2×), 58.5, 38.8, 29.9 (2×), 49.6 (2×), 48.2, 59.7, 41.7, 49.1, 53.5, 50.3, 47.8, 33.7, 49.2, 21.2, 51.5, 32.9, 20.3, 37.8, 53.7, 52.7, 54.8, 53.1, 63.7, 63.4, 58.1, 57.3, 55.3, 64.1, 33.4 (2×), 27.1, 42.6, 24.5, 46.5, 46.6, 37, 25, 31.2, 45.1, 29.3, 31.1%"
same,growth,"0.25 µM, runs of 2013","inactive: 18.8 (2×), 32.9, 21.6, 12.3, 20.3, 23.2, 35.2 (2×), 15.9, 19.4, 28.8, 31.8, 22.7, 36.5 (2×), 26, 41.8, 32.3, 11.4, 14.2, 22.2 (2×), 24.4, 26.9, 36.2 (2×), 25.5, 28.7, 22.8, 40, 37.1 (2×), 31.1, 48.1, 53, 41.7, 46.8, 36.4, 52.5, 36.1, 41.1, 38, 42.5, 42.3, 48.3, 44.1, 41.6, 36.3, 31.7, 22.6 (2×), 37.6, 36.6, 33.6, 16.4, 12.7, 14.8, 21.4, 18.7, 13.5, 32.7, 25.6, 30.9, 12.6, 21.7, 11.5, 12.5% and active: 8.74, -18.6, 5.7, 5.15, -8.86, -2.93, -5.77, -8.44%"
same,growth,"0.25 µM, runs of 2014","active: -5.1, -2.44, -24.4, -20.7 (2×), -29.3, -5.31, -16.2, 6.25, -15.4, -16.6, 4.08, 2.38, -41.6, -38.9, -45.7, -42.5, -25.8, -24.7, -20.3, -11.6, -5.02, 2.66, -6.07, -5.86, 5.16, 3.9, 7.5, 6.95, 2.07, 3.59, 6.6, 6.37, 9.3 (2×), 4.82, 1.09, -5.18, -21.2, -45.9, -35, -16.5, -0.409, -38, -32.8, -29.5, 3.87, -25.4, -12.9, -15.9, -12.1, -18.4, -9.68, -6.98, -23.2, 1.36, -16.4, -1.08, -11.9, 4.42, 3.01, -19.6, -14.9, 7.33% and inactive: 17.4, 12.7 (2×), 37.8, 17.2, 33.8, 19.8, 13.2, 25.2 (2×), 16.5, 22.8, 21.4, 15.8, 10.3, 14.4, 36.8, 28.8%"
same,growth,"0.25 µM, runs of 2015","active: 8.24, 5.25, 0.736, -11.8, -1.88, 7.88, -9.11, -11.3, 8.02, -17.5, -1.74, -9.43, -28.1, -17.8, 5.31, -33.5, -2.56, -12.7, 6.58, -2.91, 3.64, 0.88, 0.659, 6.3, 1.05, -5.7, -3.17, 7.06, 5.97, 6.73% and inactive: 17, 27.2, 14.6 (2×), 23.1, 42, 10.9, 24.5, 48.6, 50.2, 44.2, 44, 48.2, 50.6, 38.5, 36.8, 24.1 (2×), 19.6, 20.3, 13.3, 32.8, 23.8, 18, 18.2, 16.5, 14.5, 20.9, 18.7, 32.6, 27.6, 17.7, 37, 28.5 (2×), 19.8, 12.7, 31.3, 27.8, 23.7, 21.3, 21.5, 30.2, 22, 39, 29.1, 17.4, 14, 31.1, 23, 19.7, 28.4%"
same,growth,"0.25 µM, runs of 2016","inactive: 31.3 (2×), 29.6, 27.1, 38.8, 45.9, 54.5, 51.5, 35.8 (2×), 39.4, 30.3, 34.1, 35.1, 30.6, 38, 17.4, 14.6, 12, 10.3, 11.4 (2×), 20.9, 20.5, 46.1 (2×), 53, 21.2, 49.4, 41.1, 40.9, 41, 39.1, 32.9, 39, 20.4, 26.9, 26.6, 14.2, 25.2, 16.4, 16.6, 13, 23.5, 15.3, 33.5, 31.1, 36.4, 26.5, 36.5, 57.9, 33.1, 27.4, 11.7, 60.8, 53.8, 40.2, 46.2, 41.5, 38.5, 45.3, 44.9, 52.9, 54.6% and active: -4.21 (2×), 2.72, 6.8, -2.73, 4.01, -7.01, 8.57, 8.54, -18.2, -21.3, -9.52, -3.99 (2×), -16, -2.94, -13.9, -9.79, 8.11, -4.47, 7.57%"
same,growth,"0.25 µM, runs of 2017","inactive: 56.1, 61.6, 55.4, 53.6, 57.7, 44, 35.8, 36.4, 27.5, 36.2, 18.5, 22.1, 18.4, 21.7, 27.2, 29.6, 35.9, 32.8, 45.4, 46.9, 54.9, 53.4, 46.3, 42.3, 32.7, 21.3, 26.8, 12.3, 18.1, 11 (2×), 25.1, 16.8, 13.1, 21.5, 17.9, 18.8, 15.1, 17.4, 27.3, 23.3, 45.2, 38.4, 46.2, 46.7, 44.8, 43.8, 50.8, 39.5, 47.3, 18, 31.6, 14.1, 11.6, 20.8, 16.6, 11.4, 14.4, 19.5, 16.4, 22.4, 29.1, 25, 10.9, 13.8% and active: 7.13, 0.384, 4.06, 4.96, 4.41, 9.04, 3.1, 3.65, 6.48, 5.07, 5.1, 2.27, -0.245%"
same,growth,"0.25 µM, runs of 2018","inactive: 45.6, 45.2, 42.4, 44, 35.1, 33.7 (2×), 29.6 (2×), 24.4, 26.5, 21.8, 40.5, 39.2, 35.3 (2×), 48.8, 42.2, 46.9, 47.8, 40.7, 25.3, 24.6, 22.1, 37.6, 24, 31.7, 26.3, 21.9, 29.5, 19.2, 23, 20.7, 20.2, 17.3, 29.2, 16.7% and active: -1.31, 3.07, -9.79, 4.66, -8.21, -12.8, -16.2, -7.55, -19.3, -4.79, -8.64, -20.9, -22.7, -33.7, -26%"
same,growth,"0.25 µM, runs of 2019","active: -29.6, -26.6, -19.3 (2×), -22.3, -23.9, -24.8, -12.2, 0.672, 3.15, -2.44, -24.1, -18, -23.1, -30.4, -21, -15.8, -14.6, -22.6% and inactive: 43.1, 35.6, 31.8, 33.5, 25.8, 30.7, 35.5, 41.6, 40.5, 40.4, 20.7, 29.4, 32.3, 31.1, 25.6, 39.9, 38.8, 40.3, 12, 13.5, 21.3, 21.5%"
same,growth,"0.25 µM, runs of 2020","inactive: 34.3 (2×), 30.8, 20.7, 14.8, 13.7, 12.3, 17.5, 15, 25.1, 18.5, 33.7, 46.2, 31.8, 41.6, 28.4, 22.4, 24.1, 22.3, 15.8, 12.4, 23.7% and active: 1.45%, -2.75%, 5.32%"
same,growth,"0.25 µM, runs of 2021","inactive: 10.4, 35.8, 18.3, 13.8, 35.5, 47.7, 41.6, 38.4, 15.3 (2×), 30.1, 23.3, 11.3, 37.2, 36.2, 37.1, 29.8, 23.4, 19.4, 40.9, 25.2, 33.4, 38.6, 35.7% and active: 6.81, -1.71, 7.33, -18.8, -9.96, -0.162, 2.31, -7.01, -4.03, -9.22, -8.87, -1.03, 1.11, 6.39, 2, 2.16, -7, -5.55, -10.6, -25.5, -16.6, -45.3, -34, -44.9, -62, -79.3%"
same,growth,"0.25 µM, runs of 2022","active: -23.3, -19.6, -56.1, -14.4, 7.86, 4.64, -5.9, -21.7, -30.9, -38.1, -9.97, -12.6, -15.1, 2.76, -27.4% and inactive: 33.9, 19.2, 13.1, 25.3, 17.6, 28.6, 10.1, 45.3, 56.4, 23.6, 47.5, 51.7, 66.9%"
same,growth,"25 µM, runs of 1991","active: -55.3, -73.4, -70, -69.6 (2×), -68.7, -78.7, -29, -75.1, -71.2, -74, -18.1, -63.8, -65.3, -53.1, -64, -36.9%"
